Residue numbers refer to the chain shown, from its start. Recombinant human monoclonal antibodies (heavy:light variable regions). ELISA EC50 on the named antigen, from 10 µg/ml down; IC50 / IC90 against spike pseudovirus on 293T-ACE2 cells, 48 h; lower = stronger. Calls: IC50 above 1,000 ng/ml = non-neutralizing; EC50 above 2,000 ng/ml = non-binder. The source prints 1000 for neutralization that was not reached; it is given as >1000 ng/ml. A few antibodies were first reported in earlier work of the same group.
B1: C2167 (protein)
chain 1: QLQLQESGPGLGKPSETLSLTCTVSGGSISSSSYYWGWIRQPPGKGLEWIGSIYYIGNTYYNPSLKSRVTISVDTSKNQFSLKLSSVTAADTAVYYCARHETDYGGVAGHFQHWGQGTLVTVSS
chain 2: QSALTQPASVSGSPGQSITISCTGTSSDVGSYNLVSWYQQHPGKAPKLMIYEGSKRPSGVSNRFSGSKSGNTASLTISGLQAEDEADYYCCSYAGTYVVFGGGTKLTVL
B2: C2168 (protein)
chain 1: EVQLVQSGAEVKKPGESLKISCKGSGYSFTRYWIGWVRQMPGKGLEWMGIIDPGDSETRYSPSFQGQVTISADKSISTAYLQWSSLKASDTAMYYCARQYCGGDCPFDYWGQGTLVTVSS
chain 2: DIQMTQSPSTLSASVGDRVTITCRASQSISTWLAWYQQKPGKAPKLLIYDASSLESGVPSRFSGSGSGTEFTVTISSLQPDDFATYYCQQYKSYSRTFGQGTKVEIK
B3: C2212 (protein)
chain 1: EVQLVESGGGLVQPGGSLRLSCAASGFIVSSNYMSWVRQAPGKGLEWVSLIYSGGSTYYADSVQGRFTISRDNSKNTLYLQMNSLRAEDTAVYYCARGPYPRGFDYWGQGALVTVSS
chain 2: IRMTQSPSSLSASVGDRVTITCQASQDIRKYLNWYQQKPGKAPKLLIYDASNLETGVPSRFSGSGSGTDFTFTISSLQPEDIATYYCQQYDNVPLTFGGGTKVEIK
B4: C2169 (protein)
chain 1: QVQLVQSGAEVKKPGASVKVSCKASGYTFTSYYMHWVRQAPGQGLEWMGIINPSGGSTSYAQKFQGRVTMTRDTSTSTVYMELSSLRSEDTAVYYCARDNDILTGYYLGHPHGMDVWGQGTTVTVSS
chain 2: SYELTQPPSVSVSPGQTARITCSGDALPKQYAYWYQQKPGQAPVLVIYKDSERPSGIPERFSGSSSGTTVTLTISGVQAEDEADYYCQSADSSVVFGGGTKLTVL
B5: C2170 (protein)
chain 1: QVQLVQSGAEVKKPGSSVKVSCKASGGTFSSYAISWVRQAPGQGLEWMGGIIPIFGTANYAQKFQGRVTITADESTSTAYMELSSLRSEDTAVYYCASCRYYYDSSGYAQPEDYFDYWGQGTLVTVSS
chain 2: QSVLTQPPSVSGAPGQRVTISCTGSSSNIGAGYDVHWYQQLPGTAPKLLIYGNSNRPSGVPDRFSGSKSGTSASLAITGLQAEDEADYYCQSYDSSLSGSHVVFGGGTKLTVL
B6: C2172 (protein)
chain 1: EVQLVESGGGLVKPGGSLRLSCAASGFTFSSYNMNWVRQAPGKGLEWVSSISSSSSYISYADSVKGRFTISRDNAKNSLYLQMNSLRAEDTAVYYCAREGSTSCYPSFICDWFDPWGQGTLVTVSS
chain 2: EIVMTQSPATLSVSPGERATLSCRASQSVSSNLAWYQQKPGQAPRLLIYGASTRATGIPARFSGSGSGTEFTLTISSLQSEDFAVYYCQQYNNWPTFTFGPGTKVDIK
B7: C2173 (protein)
chain 1: EVQLVESGGGLIQPGGSLRLSCAASGFTVSSNYMSWVRQAPGKGLEWVSVIYSGGSTYYADSVKGRFTISRDNSKNTLYLQMNSLRAEDTAVYYCARDIVGAIRGMDVWGQGTTVTVSS
chain 2: B3 chain 2 with R29S, K30N, V93L, L95R
B8: C2174 (protein)
chain 1: QVQLQESGPGLVKPSETLSLTCTVSGGSISSYYWSWIRQPPGKGLEWIAYIYYSGGTNYNPSLKSRVTISVDTSKNQFSLKLSSVTAADTAVYYCARDLPHYDFWSGSSLDAFDIWGPGTMVTVSS
chain 2: QSALTQPASVSGSPGQSITISCTGTSSDVGGYNYVSWYQQHPGKAPKLMIYDVSNRPSGVSNRFSGSKSGNTASLTISGLQAEDEADYYCSSYTSSSTRVFGTGTKVTVL
B9: C2175 (protein)
chain 1: QVQLVQSGAEVKKPGASVKVSCKASGYTFTSYYMHWVRQAPGQGLEWMGIINPSGGSTSYAQKFQGRVTMTRDTSTSTVYMELSSLRSEDTAVYYCARVEPPITQEMATILPYFDYWGQGTLVTVSS
chain 2: QSVLTQPPSVSGAPGQRVTISCTGSSSNIGAGYDVHWYQQLPGTAPKLLIYGNSNRPSGVPDRFSGSKSGTSASLAITGLQAEDEADYYCQSYDSSLSDNWVFGGGTKLTVL
B10: C2176 (protein)
chain 1: EVQLVESGGGLVQPGGSLRLSCAASGFTFSNYDMHWVRQASGKGLEWVSVIGTAGDTYYPGSVKGRFTISRENAKNSLYLQMNSLRAGDTAVYYCARANYFDSSGYGYYYYGMDVWGQGTTVTVSS
chain 2: B6 chain 2 with S31R, N92Y, T96P, F97L, P101G, D106E
B11: C2178 (protein)
chain 1: EVQLVESGGGLIQPGGSLRLSCAASGFTVSRNYMTWVRQAPGKGLEWVSVIYSGGSTYYADSVKGRFTISRDNSKNTLYLQMNSLRAEDTALYYCARDLGPSGGIDYWGQGTLVTVSS
chain 2: QSVLTQPPSASGTPGQRVTISCSGSSSNIGSDYVYWYQQLPGTAPKLLIYRNNQRPSGVPDRFSGSKSGTSASLAISGLRSEDEADYYCAAWDDSLWVFGGGTKLTVL
B12: C2188 (protein)
chain 1: EVQLVESGGGLIQPGGSLRLSCAASGITVSSNYMSWVRQAPGKGLEWVSVMYAGGSTFYADSVKGRFTISRDDSKNTLFLQMNSLRAEDTAIYYCARDLYSSGGTDIWGQGTMVTVSS
chain 2: QSVLTQPPSVSGAPGQRVTISCTGSSSNIGAGYDVHWYQQLPGTAPKLLIYGNSNRPSGVPDRFSGSKSGTSASLAITGLQAEDEADYYCQSYDSSLSGSVFGGGTKLTVL
B13: C2117 (protein)
chain 1: EVQLVESGGGVVQPGGSLRLSCAASGFTFDDYAIHWVRQAPGKGLEWVSLISGDGGSTYYADSVKGRFTISRDNSKNSLYLQMNSLRTEDTALYYCAKPGDDFWSGYFKGGVDYWGQGTLVTVSS
chain 2: QSVLTQPPSASGTPGQRVTISCSGSSSNIGSNYVYWYQQLPGTAPKLLIYRNNQRPSGVPDRFSGSKSGTSASLAISGLRSEDEADYYCAAWDDSLSAWVFGGGTKLTVL
B14: C2118 (protein)
chain 1: VQLVESGGGVVQPGRSLRLSCAASGFTFSSYGMHWVRQAPGKGLEWVAVISYDGSNKYYADSVKGRFTISRDNSKNTLYLQMNSLRAEDTAVYYCAKGGPFGYSFPLKYFDYWGQGTLVTVSS
chain 2: IRMTQSPSSLSASVGDRVTITCQASQDISNYLNWYQQKPGKAPKLLIYDASNLETGVPSRFSGSGSGTDFTFTISSLQPEDIATYYCQQYDNLPSFTFGPGTKVDIK
B15: C2119 (protein)
chain 1: EVQLVESGGGLIQPGGSLRLSCVASGLTVSSNYMSWVRQAPGKGLEWVSVIYSGGSTYYADSVKGRFTISRDNSKNTLYFQMNSLRAEDTAVYYCARDLLAYGMDVWGQGTTVTVSS
chain 2: QSVLTQPPSASGTPGQRVTISCSGSSSNIGSNYVYWYQQLPGTAPKLLIYRNNQRPSGVPDRFSGSKSGTSASLAISGVRSEDEADYYCAAWDDSLSGPLWVFGGGTKLTVL
B16: C2218 (protein)
chain 1: QLQLQESGPGLVKPSETLSLTCTVSGASISSATYYWGWIRQPPGKGLEWIGNIFYSGTTYYNPSLKSRVTMSVDTSKNQFSLKLSSVTAADTALYYCARHVRYMIDNAFDIWGQGTMVTVSS
chain 2: QAVVTQPASVSGSPGQSITISCTGTSSDVGSYNLVSWYQQHPGKAPKLMIYEGSKRPSGVSNRFSGSKSGNTASLTISGLQAEDEADYYCCSYAGSSTYVFGTGTKVTVL

What follows are binders tested against SARS-CoV-2 Wuhan-Hu-1 spike pseudovirus (assay: pseudovirus neutralization IC50; higher = weaker neutralization).
Procedure: (§1)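 Single-round luciferase reporter pseudovirus mixed with antibody dilutions and put on 293T-ACE2 cells for 48 h; signal relative to no-antibody wells, four-parameter fit.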

| Binder | pseudovirus neutralization IC50 |
| --- | --- |
| B1 | 0.0798 µg/mL |
| B2 | > 1 µg/mL |
| B3 | 0.012 µg/mL |
| B4 | > 1 µg/mL |
| B5 | 0.095 µg/mL |
| B6 | 0.454 µg/mL |
| B7 | 0.0959 µg/mL |
| B8 | 0.534 µg/mL |
| B9 | 0.0269 µg/mL |
| B10 | > 1 µg/mL |
| B11 | 0.0148 µg/mL |
| B12 | 0.153 µg/mL |
| B13 | > 1 µg/mL |
| B14 | > 1 µg/mL |
| B15 | 0.0844 µg/mL |
| B16 | > 1 µg/mL |

These binders were tested against SARS-CoV-2 Wuhan-Hu-1 spike pseudovirus (assay: pseudovirus neutralization IC90; higher = weaker neutralization).
Procedure: as §1

| Binder | pseudovirus neutralization IC90 |
| --- | --- |
| B1 | 0.769 µg/mL |
| B2 | > 1 µg/mL |
| B3 | 0.0904 µg/mL |
| B4 | > 1 µg/mL |
| B5 | 0.59 µg/mL |
| B6 | > 1 µg/mL |
| B7 | 0.523 µg/mL |
| B8 | > 1 µg/mL |
| B9 | 0.314 µg/mL |
| B10 | > 1 µg/mL |
| B11 | 0.0685 µg/mL |
| B12 | > 1 µg/mL |
| B13 | > 1 µg/mL |
| B14 | > 1 µg/mL |
| B15 | 0.28 µg/mL |
| B16 | > 1 µg/mL |

The binders below were run against SARS-CoV-2 Wuhan-Hu-1 spike receptor-binding domain (assay: ELISA binding EC50; higher = weaker binding; ELISA of recombinant human antibody on coated antigen, from 10 µg/ml in fourfold dilutions; four-parameter fit.).

| Binder | ELISA binding EC50 |
| --- | --- |
| B1 | 0.00212 µg/mL |
| B2 | 0.0023 µg/mL |
| B3 | 0.00168 µg/mL |
| B4 | 0.00367 µg/mL |
| B5 | 0.00188 µg/mL |
| B6 | 0.00207 µg/mL |
| B7 | 0.00158 µg/mL |
| B8 | 0.0029 µg/mL |
| B9 | 0.00267 µg/mL |
| B10 | 0.00307 µg/mL |
| B11 | 0.0039 µg/mL |
| B12 | 0.00149 µg/mL |
| B13 | 0.00246 µg/mL |
| B14 | 0.0396 µg/mL |
| B15 | 0.00221 µg/mL |
| B16 | > 10 µg/mL |

Source: the supplement of paper PMC8674133
